In one assay the test system is HSkMC. Put plainly: cytotoxicity call (relative viability < 0.9). As to conditions: 10 µM.
In another assay the test system is HepG2. Put plainly: cytotoxicity call (relative viability < 0.9). The following applies: 10 µM.
For a further assay, the system named is S. aureus RN4220. Put plainly: growth inhibition call (relative growth <= 0.2). The following applies: 50 µM.

Molecules are shown by their SMILES. The list shows a part of the results.

As to `Cn1ccnc1CO`, the cytotoxicity call in the assay with HSkMC and in the assay on HepG2 was “inactive” in each case. In the assay on S. aureus RN4220, the growth inhibition call is “inactive”.

On to `COc1ccc(NC(=O)Nc2ccc3c(c2)CC(=O)N([C@H](C)CO)C[C@H](C)[C@@H](CN(C)Cc2ccc(C(=O)Nc4ccccc4N)cc2)O3)cc1`, for which the cytotoxicity call with HSkMC and in the assay with HepG2 was “inactive” in each case. For the same molecule, the growth inhibition call with S. aureus RN4220 is “inactive”.

As for `CC(C)NC(=O)Nc1ccc2c(c1)C(=O)N([C@H](C)CO)C[C@H](C)[C@H](CN(C)C(=O)C1CCCCC1)OCCCC[C@H](C)O2`, the cytotoxicity call with HSkMC and with HepG2 was “inactive” each time. For the same molecule, in the assay on S. aureus RN4220, the growth inhibition call is “inactive”.

As to `NC(=O)Cc1cccc(C(=O)c2ccccc2)c1N`, the cytotoxicity call with HSkMC and in the assay on HepG2 was “inactive” throughout. The growth inhibition call with S. aureus RN4220 is “inactive”.

On to `OC[C@H]1O[C@H](n2nnc3ccccc32)[C@@H](O)[C@@H](O)[C@@H]1O`, for which the cytotoxicity call in the assay on HSkMC and in the assay with HepG2 was “inactive” each time. The growth inhibition call with S. aureus RN4220 is “inactive”.

As to `CC(C)NC(=O)Nc1ccc2c(c1)C(=O)N([C@@H](C)CO)C[C@@H](C)[C@H](CN(C)Cc1ccc(C(F)(F)F)cc1)OCCCC[C@@H](C)O2`, the cytotoxicity call in the assay on HSkMC and with HepG2 was “inactive” throughout. For the same molecule, the growth inhibition call with S. aureus RN4220 was “inactive”.

As for `C[C@H](CO)N1C[C@H](C)[C@H](CN(C)C(=O)C2CCOCC2)Oc2cc(-c3ccc(F)cc3)ccc2S1(=O)=O`, the cytotoxicity call with HSkMC and in the assay with HepG2 was “inactive” in each case. Further, the growth inhibition call in the assay with S. aureus RN4220 was “inactive”.

For `COC(=O)NC(C(=O)NC(Cc1ccccc1)C(O)CN(Cc1ccc(-c2ccccn2)cc1)NC(=O)C(NC(=O)OC)C(C)(C)C)C(C)(C)C.O=S(=O)(O)O` (configuration not stated), the cytotoxicity call with HSkMC and in the assay with HepG2 was “inactive” each time. For the same molecule, in the assay with S. aureus RN4220, the growth inhibition call is “inactive”.

For `CC(=O)N1CCN(c2c(C)cnc3c2c(=O)n(CC(N)=O)c(=O)n3C)CC1`, the cytotoxicity call with HSkMC and in the assay on HepG2 was “inactive” in each case. In the assay on S. aureus RN4220, the growth inhibition call is “inactive”.

As to `O=c1[nH]c(=O)c2ccccc2[nH]1`, the cytotoxicity call in the assay with HSkMC and in the assay on HepG2 was “inactive” each time. The growth inhibition call in the assay with S. aureus RN4220 was “inactive”.

In the case of `Cc1noc(C)c1NC(=O)N(C)C[C@@H]1OCCCC[C@@H](C)Oc2ccc(NS(=O)(=O)c3ccc(F)cc3)cc2C(=O)N([C@H](C)CO)C[C@H]1C`, the cytotoxicity call with HSkMC and with HepG2 was “inactive” throughout. In addition, the growth inhibition call with S. aureus RN4220 was “inactive”.

Regarding `COc1ccc(C(=O)Nc2ccc(CN3C(=O)[C@@]4(O[C@@H](CC(=O)N(CCO)Cc5ccccc5)[C@H]([Si](C)(C)c5ccc(OC)cc5)[C@H]4C)c4ccccc43)cc2)cc1`, the cytotoxicity call with HSkMC and with HepG2 was “inactive” each time. Moreover, in the assay on S. aureus RN4220, the growth inhibition call is “inactive”.

Consider `Cc1cc2c(cc1S(N)(=O)=O)S(=O)(=O)CCC2`, for which the cytotoxicity call with HSkMC and in the assay with HepG2 was “inactive” throughout. Further, the growth inhibition call in the assay with S. aureus RN4220 is “inactive”.

With `C[C@@H]1NC(=O)[C@@H](N)CNC(=O)[C@H]([C@H]2CCN=C(N)N2)NC(=O)/C(=C\NC(N)=O)NC(=O)[C@H](CNC(=O)C[C@@H](N)CCCN)NC1=O`, the cytotoxicity call in the assay on HSkMC and in the assay with HepG2 was “inactive” in each case. Besides, in the assay with S. aureus RN4220, the growth inhibition call is “inactive”.

With `COc1ccc(NC(=O)Nc2ccc3c(c2)C(=O)N([C@@H](C)CO)C[C@H](C)[C@H](CN(C)C(=O)NC(C)C)OCCCC[C@@H](C)O3)cc1`, the cytotoxicity call with HSkMC and with HepG2 was “inactive” each time. In addition, in the assay on S. aureus RN4220, the growth inhibition call is “inactive”.

`Cc1ccc(S(N)(=O)=O)cc1`: the cytotoxicity call in the assay with HSkMC and in the assay with HepG2 was “inactive” each time. The growth inhibition call in the assay on S. aureus RN4220 is “inactive”.

Take `CCCC#Cc1ccc2c(c1)O[C@H](CN(C)C(=O)c1cnccn1)[C@@H](C)CN([C@H](C)CO)S2(=O)=O`: the cytotoxicity call with HSkMC and in the assay with HepG2 was “inactive” throughout. In the assay with S. aureus RN4220, the growth inhibition call was “inactive”.

`Cc1ccc(S(=O)(=O)N(C)C[C@H]2Oc3ccc(NC(=O)c4ccncc4)cc3CC(=O)N([C@@H](C)CO)C[C@H]2C)cc1`: the cytotoxicity call in the assay on HSkMC and in the assay with HepG2 was “inactive” each time. In the assay with S. aureus RN4220, the growth inhibition call was “inactive”.

As to `CO[C@H]1CN(C)C(=O)c2cc(NS(=O)(=O)CC(F)(F)F)ccc2OC[C@@H](C)N(Cc2cccnc2)C[C@@H]1C`, the cytotoxicity call in the assay with HSkMC and with HepG2 was “inactive” each time. Further, in the assay with S. aureus RN4220, the growth inhibition call is “inactive”.

With `C#CCOc1cccc2c1CCNC2=O`, the cytotoxicity call with HSkMC and with HepG2 was “inactive” each time. In the assay with S. aureus RN4220, the growth inhibition call was “inactive”.

Turning to `CN(C)c1n[nH]c(=O)[nH]c1=O`, the cytotoxicity call in the assay with HSkMC and in the assay on HepG2 was “inactive” in each case. In the assay with S. aureus RN4220, the growth inhibition call is “inactive”.

Consider `COc1ccc(S(=O)(=O)Nc2ccc3c(c2)C(=O)N([C@H](C)CO)C[C@H](C)[C@@H](CN(C)S(=O)(=O)c2ccc(OC)cc2)O3)cc1`, for which the cytotoxicity call in the assay on HSkMC and in the assay with HepG2 was “inactive” throughout. Moreover, in the assay on S. aureus RN4220, the growth inhibition call was “inactive”.

For `Cc1ccc(S(=O)(=O)N(C)C[C@H]2Oc3ccc(NS(=O)(=O)c4cn(C)cn4)cc3CC(=O)N([C@H](C)CO)C[C@@H]2C)cc1`, the cytotoxicity call in the assay on HSkMC and with HepG2 was “inactive” in each case. Further, the growth inhibition call in the assay on S. aureus RN4220 was “inactive”.

On to `C[C@H]1CCCCO[C@@H](CN(C)CC2CCCCC2)[C@@H](C)CN([C@@H](C)CO)C(=O)c2cc(NC(=O)Nc3ccc(C(F)(F)F)cc3)ccc2O1`, for which the cytotoxicity call in the assay with HSkMC and in the assay on HepG2 was “active” throughout. Moreover, in the assay with S. aureus RN4220, the growth inhibition call is “inactive”.

Take `C[C@@H]1C[C@H](O)/C=C/[C@H](O)[C@@H](O)CC(=O)O1`: the cytotoxicity call in the assay on HSkMC (human skeletal muscle cells) and in the assay with HepG2 was “inactive” in each case. In addition, the growth inhibition call in the assay with S. aureus RN4220 is “inactive”.

For `C[C@@H]1CCCCO[C@H](CN(C)C(=O)Nc2cccc3ccccc23)[C@@H](C)CN([C@@H](C)CO)C(=O)c2cc(NC(=O)Nc3ccc(F)cc3)ccc2O1`, the cytotoxicity call with HSkMC and in the assay on HepG2 was “inactive” in each case. In addition, the growth inhibition call in the assay on S. aureus RN4220 is “inactive”.

With `C[C@@H]1CN([C@@H](C)CO)C(=O)Cc2cc(NC(=O)C3CCCCC3)ccc2O[C@@H]1CN(C)S(C)(=O)=O`, the cytotoxicity call in the assay with HSkMC and with HepG2 was “inactive” in each case. Moreover, the growth inhibition call with S. aureus RN4220 was “inactive”.

Turning to `CC1=NNc2nc3c(c(=O)n(C)c(=O)n3C)n2C1`, the cytotoxicity call with HSkMC and with HepG2 was “inactive” in each case. For the same molecule, the growth inhibition call in the assay on S. aureus RN4220 was “inactive”.

Regarding `O=C(C[C@@H]1CC[C@@H]2[C@H](COC[C@@H](O)CN2C(=O)Nc2ccc(Cl)cc2)O1)NCCc1ccncc1`, the cytotoxicity call in the assay with HSkMC and with HepG2 was “inactive” in each case. Besides, the growth inhibition call in the assay on S. aureus RN4220 is “inactive”.

Source of the values: the antibiotic and cytotoxicity screens of Wong et al. (2023).
